Measured values published in PubChem BioAssay AID1963576 (National Center for Advancing Translational Sciences (NCATS), 2024).
Screen size: about 46,000 compounds; about 60 (0.1%) were called active. Another 3% or so got no clear call; they are omitted. Calls come from the whole dose curve; as a rule, active = well fitted inhibition curve with a large enough effect; inconclusive = small, poorly fitted or top-dose-only effect; inactive = no such curve, though single readings can be large or run the other way. This is one part of the list.

test: Primary qHTS assay for Inhibitors of ovarian cancer metastasis using an organotypic tumor microenvironment (TME) model.; note: nearly all actives have a fitted effect of over 65% in size;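 for activity change, negative = inhibition: plate controls were DMSO wells for no effect and tomatine positive control wells for full effect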; details: SKOV3ip1-GFP adhesion/invasion on 3D omental model, fluorescence; series mostly up to 45.8 µM; activity change, negative = inhibition: at the top concentration
Summary of the method: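 Adhesion/invasion was scored as fixed GFP-labeled SKOV3ip1 cell counts (488/509 nm), normalized to DMSO and tomatine controls. Cancer cells in serum-free medium, with four compound doses (0.36-46 umol/L), sat 2 hr at RT then 16 hr at 37 C on a 48 hr fibroblast/mesothelial/ECM culture.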

Activity change, negative = inhibition, inactive:
Cc1ccc(OC(C)C(=O)N2CCN(CCc3ccncc3)CC2)cc1C (stereo not given) 0.692%
CCOC(=O)c1cccc(NS(=O)(=O)c2ccc3[nH]c4c(c3c2)CCCC4)c1 0.906%
CC(Sc1nc2c(c(=O)[nH]1)CCCC2)C(=O)Nc1cc(C(F)(F)F)ccc1Cl (stereo not given) -1.27%
Cc1cccc(C(=O)NCCc2nc3ccccc3n2Cc2ccc(Cl)cc2)c1 -0.471%
CCCCc1ccc(-n2nc3cc(Cl)c(NC(=O)c4ccc(OC)cc4)cc3n2)cc1 -11%
Cc1ccc(-n2cnc3cc(C(=O)NCc4ccc(F)cc4)ccc32)c(C)c1 13.5%
CCOC(=O)C1CCN(c2nc3c(S(=O)(=O)c4ccccc4)nnn3c3ccc(Cl)cc23)CC1 -1.73%
Cc1ccc(NC(=O)CN2CCN(c3ccccc3F)CC2)cc1F 0.487%
CCC(CC)C(=O)Nc1ccccc1SCc1cc(=O)c2cccc(C)c2[nH]1 2.44%
COCCCNC(=O)C1CCC(Cn2c(=O)c3sccc3n(C)c2=O)CC1 (stereo not given) -15.7%
Cc1ccc(NC(=O)c2ccc(Cl)cc2Cl)c(C(=O)c2ccccc2)c1 2%
Cc1ccc(Cn2c(C)c(CNCC(C)c3ccccc3)c(C(=O)O)c2C)cc1 (stereo not given) 15%
CCOc1ccc(-c2cc3c(=O)n(Cc4nc(-c5ccccc5OCC)oc4C)ccn3n2)cc1Cl -3.08%
O=S(=O)(NCc1ccc(Cl)cc1)c1ccc2[nH]c3c(c2c1)CCCC3 -1.76%
CCCCN(CCCNC(=O)c1cc(Nc2ccc(OC)cc2)nc2ccccc12)Cc1ccccc1 -5.64%
COc1ccc(-n2cc(-c3ccc4c(c3)OCO4)n(CC(=O)Nc3cccc(C)c3C)c2=O)c(OC)c1 1.47%
Cc1ccc(C)c(N2CCN(S(=O)(=O)c3ccc(-c4coc(C)n4)cc3)CC2)c1 11.1%
COc1ccc(C(=O)c2sc3nc(-c4ccc(C)cc4)cc(C(F)(F)F)c3c2N)cc1 0.665%
Cc1cc(Nc2ncc3c(n2)N(C)C(=O)N(c2cc(NC(=O)c4cccc(C(F)(F)F)c4)ccc2C)C3)n(C)n1 1.68%
O=c1c(S(=O)(=O)c2ccccc2)cn(Cc2ccc(F)cc2)c2cc(N3CCOCC3)c(F)cc12 1.23%
Cc1cccc(N2CCN(C(=O)Cn3ncc4c5ccccc5n(C)c4c3=O)CC2C)c1 (stereo not given) -6.11%
Cc1ccc(S(=O)(=O)c2nc(S(=O)(=O)c3ccc(C)cc3)c(NCCCOC(C)C)s2)cc1 -15.8%
COc1cccc2cc(-c3nc(Nc4cccc(C)c4C)sc3C)c(=O)oc12 2.87%
O=C(COCc1cc(-c2ccc(F)cc2)on1)Nc1cc(Cl)ccc1O -9.14%
CCOC(=O)c1c(NC(=O)/C=C/c2ccc(C)cc2)sc(C(C)=O)c1C 2.1%
COc1cccc(C2C=C(c3ccccc3)Nc3c(C(=O)Nc4ccccc4)cnn32)c1OC (stereo not given) 9.67%
CC(=O)Nc1nonc1-c1nnc(SCC(=O)Nc2cc(Cl)ccc2C)n1C -3.2%
CC1(C)[C@H](C(=O)O)N2C(=O)C[C@H]2S1(=O)=O 16.3%
CCOC(=O)c1cnc2cc(F)c(F)cc2c1Nc1ccccc1O -1.89%
O=C(O)c1ccc(-c2c[nH]c3ncc(-c4ccccc4)cc23)cc1C1CCCC1 -10.4%
Cn1c(=O)c2c(nc(NCCc3ccccc3)n2Cc2ccc(Cl)cc2)n(C)c1=O -0.132%
Cc1cccc(C(=O)Nc2sc3c(c2C(=O)NC(C)C)CCCC3)c1 -8.07%
Cc1ccc(NC(=O)CCCn2c(=O)c3cccn3c3cccnc32)cc1C 5.19%
Cc1ccc(NS(=O)(=O)c2cc3[nH]c(=O)c(=O)[nH]c3cc2C)cc1N(C)C 6.14%
Cc1ccc(CNC(=O)CSc2ncc3c(n2)-c2ccc(Cl)cc2N(Cc2ccccc2)S3(=O)=O)cc1 19.7%
COc1cc(OC)c(NC(=O)c2noc3c2CSc2ccccc2-3)cc1Cl -3.91%
CC(=O)c1ccc(N2CCN(C(=O)CCc3nnc4n(C)c(=O)c5sccc5n34)CC2)cc1 37.5%
CC(C)(C)OC(=O)N1CCC(c2c(C(=O)N3CCCCC3)cnn2-c2cccc(F)c2)CC1 1.77%
O=C(Nc1ccc(Br)cc1F)N1CCC(CN2CCc3ccccc3C2)CC1 4.03%
COc1ccc(C(=O)COC(=O)CCCC(=O)Nc2cc(C(F)(F)F)ccc2Cl)cc1 20.1%
CC1(C)CC(=O)c2c(oc3c(Cl)cc(NS(=O)(=O)c4ccc(Br)cc4)cc23)C1 11.1%
CC(C)CC(=O)Nc1ccccc1OCc1cc(=O)n2ccccc2n1 -18.3%
CCC(C)NC(=O)c1ccc2nc(CCc3ccccc3)oc2c1 (stereo not given) 5.68%
Cc1ccc(NC(=O)C(=O)NCC(c2ccc3c(c2)OCO3)N2CCOCC2)cc1C (stereo not given) 5.24%
COc1ccccc1CNC(=O)c1ccc(-c2nc(CS(=O)(=O)c3ccc(C)cc3)c(C)o2)cc1 -4.11%
O=C(NCCc1ccc(Cl)cc1)c1cc(-c2ccc(Cl)cc2)n[nH]1 2.3%
Cc1ccc(CNC(=O)CCCc2nnc3n(C)c(=O)c4sccc4n23)cc1 7.45%
CCOC(=O)c1c(NC(=O)/C=C/c2ccc(C)cc2)sc2c1CCCC2 5.21%
Cc1ccc(Nc2c(-c3ccc(C)s3)nc3ncccn23)cc1 0.521%
COc1ccc(OCC(=O)OCc2cc(=O)n3nc(C4CC4)sc3n2)cc1 -0.802%
O=c1[nH]c2ccc(NCc3ccc(-c4ccccc4)o3)cc2[nH]1 7.66%
CC1=C(C(=O)Nc2ccccc2)C(c2cccc(Cl)c2)n2nc(SCC(=O)c3ccc(C)cc3)nc2N1 (stereo not given) 0.646%
O=C(CSc1nc(-c2ccccc2)nc2c1Cc1ccccc1O2)N1CCCCC1 -0.639%
COc1ccc(OC)c(NC(=O)c2cn(CC(C)C)c(=O)c3cc(OC)c(OC)cc23)c1 35.1%
O=C(Nc1ccc2oc(-c3ccc4ccccc4c3)nc2c1)c1ccc(Cl)c(Cl)c1 3.77%
CCN(c1ccccc1)S(=O)(=O)c1ccc(NC(=O)c2cc(=O)c3ccccc3o2)cc1 6.1%
O=C(Nc1ccc(C(=O)OCc2cc(=O)n3nc(C4CC4)sc3n2)cc1)c1cccc(F)c1 -0.0947%
Fc1ccc(Nc2ncnc3c2nc2n3CCCCC2)c(F)c1 -8.13%
CCOc1ccc(-c2oc3ccc(C)cc3c(=O)c2O)cc1 -2.02%
CCCc1nnc(NC(=O)c2cc(=O)c3cc(C)c(C)cc3o2)s1 9.19%
CCC(=O)N1CCc2cc(Br)cc(S(=O)(=O)CCC(=O)N3CCN(c4cc(C)ccc4C)CC3)c21 6.89%
CCOC(=O)c1cnc2ccc(C)cc2c1Nc1ccc(N(CC)CC)cc1 -26.4%
Cc1c(C(=O)OC2CCCCC2)[nH]c2c1C(=O)CC(c1ccc(C(C)(C)C)cc1)C2 (stereo not given) 7.99%
CCOC(=O)c1cc(-c2ccc(OC)cc2)n(CCC(=O)NC2CCCCC2)c1C -4.71%
CCOC(=O)c1c(S(=O)(=O)N2CCC(C(=O)Nc3ncccc3C)CC2)c(C)n(C)c1C -0.518%
COc1ccc2c(CNC3CCCCCC3)c(C(=O)O)n(Cc3ccccc3F)c2c1 7.43%
O=C(Nc1ccc(F)cc1)C1CCN(S(=O)(=O)c2ccc3c(c2)CCCN3C(=O)C2CCC2)CC1 -11.3%
COc1ccccc1C(=O)Nc1ccc(C(=O)OCc2cc(=O)n3ccsc3n2)cc1 2.54%
CC1=C(C(=O)NCc2ccc(Cl)cc2)C2(CCCCCC2)OC1=O -6.71%
COc1ccccc1C(=O)NC(=O)Nc1ccc(-n2nc(C(F)(F)F)cc2C(F)(F)F)cc1 2.66%
Cc1ccc(N2CC(NC(=O)CCc3ccccc3)CC2=O)cc1 (stereo not given) -2.96%
Cc1cccc(N2CCN(C(=O)Cn3c(=O)c4cccn4c4ccc(F)cc43)CC2)c1C -3.48%

outcome, inactive:
CCOC(=O)c1ccc2nc(C)cc(Nc3ccc(OC(C)C)cc3)c2c1
CCOC(=O)C(CC)n1nc(C)c2c(C)n(-c3ccc(C)cc3)nc2c1=O (stereo not given)
COc1cc(OC)cc(C(=O)Nc2ccc(-c3nc4cc(C(C)C)ccc4o3)cc2)c1
CCCCc1c(C)nc2c(-c3ccc(Cl)cc3)c(C)[nH]n2c1=O
O=S(=O)(Nc1ccc(F)c(Cl)c1)c1ccc(Br)s1
Nc1nonc1C(=O)NCCNCc1ccccc1F
Cc1ccccc1-n1nc(CO)c(C(=O)NCC(c2ccccc2)c2ccccc2)n1
COc1ccc(CCNC(=O)CCCn2c(=O)c3ccccc3n(Cc3ccccc3C#N)c2=O)cc1OC
CC(=O)C1=C(c2ccc(Cl)c(Cl)c2)N(C(C)=O)n2c(nnc2-c2ccccc2)S1
COc1cc(C(CC(=O)Nc2cccc(C(C)=O)c2)N2Cc3ccccc3C2=O)cc(OC)c1OC (stereo not given)
CCOC(=O)c1cc(S(=O)(=O)NCc2cccc(Cl)c2)[nH]n1
Cc1ccc(C)c(NC(=O)CSc2nnc(-c3cc4occc4n3C)n2-c2ccccc2C)c1
CCc1ccccc1NC(=O)[C@@H](c1ccccc1)N1Cc2ccccc2C1=O
CCCCn1c(SCC(=O)Nc2ccc(OCC)cc2)nc2ccsc2c1=O
COC(=O)c1cc(Cl)ccc1NC(=O)CSc1ncc(S(=O)(=O)c2ccc(Br)cc2)c(=O)[nH]1
CC(=O)N1CCc2c(sc3c2c(=O)n(-c2cc(Cl)ccc2C)c(=O)n3Cc2ccccc2F)C1
CCCCOC(=O)c1ccc(NC(=O)c2cc(-c3cccs3)on2)cc1
Cc1cccc(OCC(=O)Nc2ccccc2C(=O)OCc2cc(=O)n3nc(C)sc3n2)c1
CCOc1ccc(NC(=O)CCCc2nnc3n(C)c(=O)c4sccc4n23)cc1
O=C(NCc1ccccc1F)C(=O)NCC(c1ccco1)S(=O)(=O)c1cccs1 (stereo not given)
Cc1ccc(CCNC(=O)c2cc3c(-c4ccccc4F)nn(C)c3s2)cc1
COc1cccc(CSc2nc3n(n2)C(c2cccnc2)C(C(=O)Nc2ccccc2C)=C(C)N3)c1 (stereo not given)
COc1ccc(-c2ccc3c(N)c(C(=O)Nc4cccc(C)c4)sc3n2)cc1
